# Laboratory results reported in the supplement of paper PMC12217912.
# The other results are listed elsewhere or left out. Sequences were assembled here from the parent chain. Inactive controls read about 0.05.
# B1: TEV protease; numbered along this chain (parent)
# chain: MGESLFKGPRDYNPISSSICHLTNESDGHTTSLYGIGFGPFIITNKHLFRRNNGTLVVQSLHGVFKVKDTTTLQQHLVDGRDMIIIRMPKDFPPFPQKLKFREPQREERICLVTTNFQTKSMSSMVSDTSCTFPSGDGIFWKHWIQTKDGQCGSPLVSTRDGFIVGIHSASNFTNTNNYFTSVPKNFMELLTNQEAQQWVSGWRLNADSVLWGGHKVFMVKPEEPFQPVKEATQL
# Variants of: B1
# Assay: raw area under fraction-flipped curve 0-4 h after induction (AUC4h, not background-subtracted), DNA-recorder readout of cleavage of the substrate (dimensionless); higher = more cleavage of the substrate by the protease variant
# Conditions: temperature: 34 °C; time window: 0-4 h after rhamnose induction
# Experimental: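 In vivo DNA recorder in E. coli TOP10(DE3) ΔrhaA at 34 °C. Each TEVp single-site mutant (parent TEVp 0) is paired with a single-site variant of the 7-mer TEVs (canonical ENLYFQ|S). The substrate sits between flexible linkers in a Bxb1-sfGFP-TEVs-SsrA fusion, so cleavage stabilises Bxb1 and speeds flipping of a recombination array, read by NGS. The value is the raw area under the fraction-flipped curve over 0-4 h after rhamnose induction (AUC4h), with ≥20 reads per time point. It is not background-subtracted; inactive controls average about 0.047.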
# 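Also: Bxb1 expression induced with 0.2% (w/v) L-rhamnose at OD600 near 0.5, cultures sampled hourly, flipped fraction per protease–substrate barcode pair counted by paired-end Illumina sequencing.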
Variant,area with substrate ENLYFCS,area with substrate ENLYFFS,area with substrate ENLYFHS,area with substrate ENLYFIS,area with substrate ENLYFMS,area with substrate ENLYFSS,area with substrate ENLYFTS,area with substrate ENLYFVS,area with substrate ENLYFWS,area with substrate ENLYFYS,area with substrate ENLYFES,area with substrate ENLYFKS,area with substrate ENLYFLS,area with substrate ENLYFPS,area with substrate ENLYFRS,area with substrate ENLYFDS,area with substrate ENLYFGS,area with substrate ENLYFNS
MGESLFKGPRDYNPISSSICHLTNESDGHTTSLYGIGFGPFIITNKHLFRRNNGTLVVQSLHGTFKVKDTTTLQQHLVDGRDMIIIRMPKDFPPFPQKLKFREPQREERICLVTTNFQTKSMSSMVSDTSCTFPSGDGIFWKHWIQTKDGQCGSPLVSTRDGFIVGIHSASNFTNTNNYFTSVPKNFMELLTNQEAQQWVSGWRLNADSVLWGGHKVFMVKPEEPFQPVKEATQL [V64T],0.0592,0.0586,0.0539,0.0344,0.0603,0.0522,0.0527,0.0708,0.0471,0.0577,–,–,–,–,–,–,–,–
MGESLFKGPRDYNPISSSICHLTNESDGHTTSLYGIGFGPFIITNKHLFRRNNGTLVVQSLHGWFKVKDTTTLQQHLVDGRDMIIIRMPKDFPPFPQKLKFREPQREERICLVTTNFQTKSMSSMVSDTSCTFPSGDGIFWKHWIQTKDGQCGSPLVSTRDGFIVGIHSASNFTNTNNYFTSVPKNFMELLTNQEAQQWVSGWRLNADSVLWGGHKVFMVKPEEPFQPVKEATQL [V64W],0.0499,–,0.0628,0.0547,–,–,–,–,0.0568,0.0634,0.078,0.0603,0.0325,0.0574,0.0595,–,–,–
MGESLFKGPRDYNPISSSICHLTNESDGHTTSLYGIGFGPFIITNKHLFRRNNGTLVVQSLHGVFKVKDTTTLQQHLVDGRDMIIIRQPKDFPPFPQKLKFREPQREERICLVTTNFQTKSMSSMVSDTSCTFPSGDGIFWKHWIQTKDGQCGSPLVSTRDGFIVGIHSASNFTNTNNYFTSVPKNFMELLTNQEAQQWVSGWRLNADSVLWGGHKVFMVKPEEPFQPVKEATQL [M88Q],0.0603,–,–,0.0544,–,0.0569,0.0643,0.0414,–,–,0.0517,–,–,0.0608,0.0753,0.0562,0.0684,0.072
MGESLFKGPRDYNPISSSICHLTNESDGHTTSLYGIGFGPFIITNKHLFRRNNGTLVVQSLHGVFKVKDTTTLQQHLVDGRDMIIIRMPKDFPPFNQKLKFREPQREERICLVTTNFQTKSMSSMVSDTSCTFPSGDGIFWKHWIQTKDGQCGSPLVSTRDGFIVGIHSASNFTNTNNYFTSVPKNFMELLTNQEAQQWVSGWRLNADSVLWGGHKVFMVKPEEPFQPVKEATQL [P96N],0.052,0.0046,0.0594,0.0598,0.0669,–,0.0685,0.0436,–,0.0559,0.0547,0.0595,0.0645,0.0619,0.0559,0.0632,0.0674,0.0752
MGESLFKGPRDYNPISSSICHLTNESDGHTTSLYGIGFGPFIITNKHLFRRNNGTLVVQSLHGVFKVKDTTTLQQHLVDGRDMIIIRMPKDFPPFMQKLKFREPQREERICLVTTNFQTKSMSSMVSDTSCTFPSGDGIFWKHWIQTKDGQCGSPLVSTRDGFIVGIHSASNFTNTNNYFTSVPKNFMELLTNQEAQQWVSGWRLNADSVLWGGHKVFMVKPEEPFQPVKEATQL [P96M],0.0773,0.0636,0.0383,0.0503,0.0606,–,0.039,0.0703,–,–,0.0671,0.0742,–,–,–,0.0721,–,0.055
MGESLFKGPRDYNPISSSICHLTNESDGHTTSLYGIGFGPFIITNKHLFRRNNGTLVVQSLHGVFKVKDTTTLQQHLVDKRDMIIIRMPKDFPPFPQKLKFREPQREERICLVTTNFQTKSMSSMVSDTSCTFPSGDGIFWKHWIQTKDGQCGSPLVSTRDGFIVGIHSASNFTNTNNYFTSVPKNFMELLTNQEAQQWVSGWRLNADSVLWGGHKVFMVKPEEPFQPVKEATQL [G80K],0.0586,0.0636,0.03,0.0659,0.06,–,0.0612,0.0625,0.0422,–,0.0663,0.0569,–,0.0507,0.0539,0.0643,–,–
MGESLFKGPRDYNPISSSICHLTNESDGHTTSLYGIGFGPFIITNKHLFRRNNGTMVVQSLHGVFKVKDTTTLQQHLVDGRDMIIIRMPKDFPPFPQKLKFREPQREERICLVTTNFQTKSMSSMVSDTSCTFPSGDGIFWKHWIQTKDGQCGSPLVSTRDGFIVGIHSASNFTNTNNYFTSVPKNFMELLTNQEAQQWVSGWRLNADSVLWGGHKVFMVKPEEPFQPVKEATQL [L56M],0.0545,0.0654,0.0645,0.0538,0.0641,0.0628,0.0658,–,–,0.0644,–,0.043,–,0.0606,0.0574,–,0.0579,0.0671
MGESLFKGPRDYNPISSSICHLTNESDGHTTSLYGIGFGPFIITNKHLFRRNNGTLVVQSLHGVFKVKDTTGLQQHLVDGRDMIIIRMPKDFPPFPQKLKFREPQREERICLVTTNFQTKSMSSMVSDTSCTFPSGDGIFWKHWIQTKDGQCGSPLVSTRDGFIVGIHSASNFTNTNNYFTSVPKNFMELLTNQEAQQWVSGWRLNADSVLWGGHKVFMVKPEEPFQPVKEATQL [T72G],0.0539,0.0665,–,0.0523,0.0733,–,–,0.0541,0.0634,0.0567,0.0666,0.0558,–,0.0611,0.0601,0.0605,0.0616,–
MGESLFKGPRDYNPISSSICHLTNESDGHTTSLYGIGFGPFIITNKHMFRRNNGTLVVQSLHGVFKVKDTTTLQQHLVDGRDMIIIRMPKDFPPFPQKLKFREPQREERICLVTTNFQTKSMSSMVSDTSCTFPSGDGIFWKHWIQTKDGQCGSPLVSTRDGFIVGIHSASNFTNTNNYFTSVPKNFMELLTNQEAQQWVSGWRLNADSVLWGGHKVFMVKPEEPFQPVKEATQL [L48M],0.0589,0.0689,–,0.0428,0.0679,0.0569,0.0553,–,0.0557,0.0623,0.0652,0.0537,0.0606,0.0493,0.0608,–,0.0562,–
MGESLFKGPRDYNPISSSICHLTNESDGHTTSLYGIGFGPFIITNKHLFRRNNGTLVVQSLHGVFKVKDTTTLQQHLVDGRDMIIIRMPKDFSPFPQKLKFREPQREERICLVTTNFQTKSMSSMVSDTSCTFPSGDGIFWKHWIQTKDGQCGSPLVSTRDGFIVGIHSASNFTNTNNYFTSVPKNFMELLTNQEAQQWVSGWRLNADSVLWGGHKVFMVKPEEPFQPVKEATQL [P93S],0.0604,–,0.0568,0.0451,0.0817,–,0.0557,–,0.0637,–,0.0657,–,–,–,–,–,–,0.0636
